Experimental data from the RNAGym collection of RNA variant scans (doi:10.1093/nar/gkz1192).
The source gives no read counts; variants with many changes may rest on few reads.

B1: CPEB3 Ribozyme (parent)
chain: UAACAGGGGGCCACAGCAGAAGCGUUCACGUCGCAGCCCCUGUCAGAUUCUGGUGAAUCUGCGAAUUCUGCUGUAUAUCUC

Variants of: B1
Assay: self-cleavage, relative activity (ratio to wild type); higher = more cleavage; in vitro, sequencing
How it was run: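 Barcoded CPEB3 ribozyme mutants, produced by rounds of error-prone PCR, self-cleaved while being transcribed with T7 RNA polymerase for 5 hours at 37°C and during a subsequent 15 min DNase I step before EDTA was added. Sequencing of template-switched cDNA on Illumina gave cleaved and total reads, and DNA sequencing assigned barcodes to variants. Each variant's relative activity is its cleaved/total read fraction divided by the unmutated ribozyme's fraction, averaged across three batches. A variant needed a minimum of 5 reads.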

Variant | self-cleavage
A20G U31C A35U U58A | 0.19
A20U A21G U31C U58C A64U U72C U80A | 0.03
A20G U26C U51A A57G U66C | 0.23
A20G U25C U48A U80A | 0.05
A20G U26A A45G | 0.45
A20G G33U U41A A45U U66C | 0.11
A20G U54C A56U C71U | 0.21
A20G U41A U58C A65G U78C | 0.36
A20G U31C U54C U58C U69C | 0.31
A20G C37U U60C | 0.4
A20U A21G U26A U51A U78A | 0.08
A20G U51A A57G U60A | 0.34
A20G U26C C39G U41C U51A U78C | 0.27
A20G U58C G61A U80C | 0.1
A20G U51A A64G | 0.63
A20U A35U U41A | 0.22
A20U A21G U25C | 0.36
A20G U41C A45G A64G U67C | 0.43
A20G G36A U67C U72C U80A | 0.23
A20G C32U U43A U60C C71U U76C | 0.05
A20G U43C U54C | 0.19
A20G U54A U67C C71G A77U | 0.33
A20G U51A G63C | 0.82
A20G U43C U49A U51G U58G U80C | 0.02

Variant | self-cleavage
A20G G24A A28G U31C U41C A45U | 0.18
A20G C27A U41C U51C | 0.07
A20G G55A A57U U74C | 0.24
A20G U25C A28G U31C U43C G63A | 0.3
A20G C38A U41C | 0.15
A20G U25C U26C | 0.42
A20G C27U U31A | 0.3
A20G U48C G52C | 0.37
A20G U31G G33U A56U | 0.12
A20G U49C A56G U60C A75U | 0.23
A20G U25C A64U U74C | 0.13
A20G U25C A28C C29U U43A U69A U80C | 0.04
A20U A45G A47G | 0.09
A20G U25G U66C U78A | 0.11
A20G U31C U76C | 0.7
A20G U31C C79U | 0.75
A20G U26A U41C U80A | 0.6
A20U A21G A28G U41C C62A A64G | 0.05
A20G U54A C62U | 0.15
A20G U26C C39G U51A U78C | 0.18
A20G U43G U48C | 0.15
A20G C40U A47G G55U U78C | 0.12
A20G U60C U80C | 0.41
A20G U43C A57G A65G U69C | 0.29

Variant | self-cleavage
A20G U43C G46U | 0.2
A20G C29U U54C U69C | 0.14
A20G C32A U41C U49C C50U | 0.1
A20G U49A A56G A57C U72A | 0.13
A20G U41C U48A U66C U78C U80C | 0.15
A20G G33C U41C A45U U67C U72C | 0.04
A20G U41C A45G U49C U58G U78A | 0.04
A20G G33C U41C | 0
A20G U43C C44A U51A U74A | 0.15
A20G G24A A28G U31C U41C A56G | 0.16
A20G U31C A65U U67G U80C | 0.2
A20G G52U G53A U72A U78C | 0.34
A20G U48C U49C U76C | 0.26
A20G U31C U49A | 0.16
A20G G42A U48A U72C | 0.23
A20G U26A A28G U49A U60C | 0.07
A20G U26C C29U A35C U54C U78C | 0.03
A20G U51C U78A | 0.71
A20G U43A G53C U60C G73C | 0.71
A20G G30U A35G U41C U54A A57U | 0.14
A20G U31C A56G | 0.22
A20G U41A U49C U69C U78C | 0.12
A20G U25C G63A | 0.26
A20G U43C U60A | 0.58

Variant | self-cleavage
A20G G24A C40U U41C U67C | 0.18
A20G G55A U69C U74A U80C | 0.82
A20G U25C A28U U31A A57G | 0.12
A20G U41A U49A A64G | 0.11
A20G U72C A77G | 1.19
A20G U26C U51C | 0.41
A20G G30A A45G U60C | 0.17
A20G U25C U31A U74A | 0.39
A20G U60A U74C | 0.43
A20G U25G U31A | 0.34
A20U A45G A56G A64G | 0.23
A20U A28U U41C A45G A56G A65G | 0.28
A20G U49C A57G | 0.2
A20G U43G A56G U58A U72A | 0.36
A20G U25C U26C U31C | 0.41
A20G U26C U41C U69C U72A U76A | 0.1
A20U A35U U78C | 0.14
A20G G24U A28G A45G U58C U60C | 0.09
A20G U25C A28G U31A U41C G46A A65C | 0.12
A20G U49A C50A U51A C59A | 0.1
A20G U31A U51A U58A | 0.1
A20G C40U U41C U72A | 0.36
A20G G63A G70C A77U | 0.13
A20U A28G U80C | 0.19

Variant | self-cleavage
A20G U25C A57G | 0.1
A20U A21G G24A A35U C39A U41C A75G | 0.27
A20G G70U U74C | 0.17
A20G U54G U60A | 0.23
A20G U25C U41A U49C | 0.25
A20G U66C G73A U76A A77G | 0.68
A20G U54C A56C A57G U66C U78C | 0.18
A20G U58A U78C | 0.19
A20G U48C U80A | 0.41
A20G U25A A28U G33A A35C U80G | 0.06
A20G C32G A57G A64G A65G | 0.12
A20G U31C U54C U60A | 0.15
A20U A21G A64U | 0.12
A20U A21U U26C C34A A35G C40U A57U | 0.04
A20G C29A C37U A56U U60C G61A A64G | 0.04
A20G U48C U51C A65G | 0.24
A20U A21G U31C U48C A57U U76C U78C | 0.07
A20G G33A A35C A64G | 0.13
A20G U51A U66C | 0.17
A20G U26C U58C U60C C71U U80C | 0.05
A20G U25C G33A A57G U58C | 0.17
A20G C34U U67C | 0.32
A20G U31C U41A U43C U48A U54A A56G | 0.12
A20G G24A U26C | 0.06

Variant | self-cleavage
A20G U49C A56U | 0.19
A20G U54C U66C | 0.3
A20G U72C U76C U78C | 0.93
A20G U49C U66A | 0.19
A20G U25G U66C | 0.25
A20U A45G U66A | 0.22
A20G U54C A64U | 0.14
A20G U66A U80C | 0.58
A20G U43C U72A | 0.15
A20G C38U U48A U54C U69C U72G | 0.15
A20G U49A A56G A64G A75U | 0.25
A20G U51A U69A | 0.43
A20U A35G A56U U72A | 0.11
A20G U49A U54A C68U | 0.47
A20U A21G U41C G55A U80A | 0.09
A20G U69A U80A | 0.55
A20G G22U A35U U43A U80C | 0.28
A20U A28G U67C A77G | 0.12
A20G U31C U54C U67C A77U | 0.92
A20G U48C G61A | 0.12
A20G U31C U78C | 0.5
A20U A21G A75U U78C | 0.09
A20G U60C A77U | 0.48
A20G G63C A64G | 0.41

Variant | self-cleavage
A20G G52C A56G U66C U69C U74A | 0.2
A20U A28G A45U A64U U78C | 0.1
A20G U69C U78A | 0.59
A20G U31C U49C U67A U69G U78A | 0.08
A20G C27G U60C | 0.25
A20U A28G U31G A47U U58C U78C | 0.03
A20G U74C U80C | 1.27
A20G U41C U78C | 0.88
A20G G24A U25C C32A | 0.3
A20U A28C U67A U76A | 0.54
A20G U26C U49C U74A | 0.1
A20G U25A U51C C71U | 0.25
A20G C37A C40A U43C U51C A64U U76C | 0.05
A20G G63A G70U A77U U80C | 0.16
A20G U58A A64U | 0.14
A20G U41C U54C A65G U80C | 0.31
A20G G24A U41C | 0.17
A20U A35C U41A U54C U78C | 0.08
A20G U25A U69C | 0.16
A20G G36U U72C U80C | 0.07
A20G C29A U41C A64U | 0.11
A20G U60C U78A | 0.44
A20G C38U U51C | 0.17
